# Measured values reported in PubChem BioAssay AID504466 (National Center for Advancing Translational Sciences (NCATS), 2011).
# About 4,200 (1.3%) of roughly 330,000 compounds were called active. Inconclusive means that the source gave no clear call. Such entries were picked first, then a sample of the others. The call rests on the fitted dose curve; in most records, active means well fitted activation curve with a large enough effect; inconclusive means small, poorly fitted or top-dose-only effect; inactive means no such curve, though single readings can be large or run the other way. A potency beside an inconclusive call is a rough fit, not a confirmed value.
# Assay: qHTS screen for small molecules that induce genotoxicity in human embryonic kidney (HEK293T) cells expressing luciferase-tagged ELG1; further: nearly all actives have a fitted effect of over 60% in size
# Details: HEK293T ELG1-luciferase reporter, luminescence, 16 h; series mostly up to 46 µM
# In short: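 16 hr compound incubation (37 °C, 5% CO2) of HEK293T cells carrying luciferase-tagged ELG1; luciferase then measured by ONE-Glo luminescence after 30 min at RT.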
# Potency means the concentration at half of the fitted maximal effect; tags describe the fitted curve by direction and shape.
row,SMILES,Potency
1,O=c1cc(-c2ccccc2)[nH]c2cc(Cl)ccc12,"inconclusive: 18.4 µM [activator, partial curve, poor fit]"
2,CCC(=O)Nc1cccc(NC(=S)NC(=O)c2cc3ccccc3o2)c1,active: 23.1 µM
3,O=C(COc1ccccc1)Nc1nc2c(s1)CCCC2,"inconclusive: 18.3 µM [activator, partial curve]"
4,O=C(CCC(=O)c1ccc(F)cc1)NCC1(N2CCCCC2)CCCCC1,inactive
5,O=C(Nc1ccc2c(c1)OCCO2)c1cccc(S(=O)(=O)N2CCOCC2)c1,"inconclusive: 23.1 µM [activator, single point]"
6,Cc1ccc(/C=N/NC(=O)c2cc(-c3cccnc3)nc3ccccc23)cc1,"inconclusive: 13 µM [activator, partial curve, poor fit]"
7,COc1ccc(O)c(/C=N/N2CCCCC2)c1,"inconclusive: 6.51 µM [activator, partial curve]"
8,COC(=O)N/N=C\c1ccccc1OC/C=C/c1ccccc1,"inconclusive: 4.11 µM [activator, full curve, poor fit]"
9,COc1ccc(-c2cc(C(=O)Nc3cc(Br)ccc3O)no2)cc1,"inconclusive: 25.9 µM [activator, single point]"
10,CC1CCCCN1Cc1c(O)ccc2c(=O)c(-c3nc4ccccc4s3)c(N)oc12 (stereo not drawn),inactive
11,O=C(NC1=NCCS1)c1ccc(Cl)s1,"inconclusive: 11.6 µM [activator, partial curve, poor fit]"
12,C=CCOC(=O)c1[nH]c2c(c1C)C(=O)CC(c1ccco1)C2 (stereo not drawn),"inconclusive: 4.61 µM [activator, partial curve, poor fit]"
13,O=C(CCCc1nc2ccccc2s1)Nc1ccccc1,"inconclusive: 18.3 µM [activator, partial curve, poor fit]"
14,CCOc1ccc(C2C(C#N)=C(N)SC(N)=C2C#N)c(OCC)c1,inactive
15,O=C(CCS(=O)(=O)c1ccccc1)NNC(=O)CSc1ccccc1F,inactive
16,O=C(CN(c1ccccc1)S(=O)(=O)c1ccccc1[N+](=O)[O-])Nc1cccnc1,inactive
17,COc1cc2c(cc1OC)-c1cc(N3CCCCCC3)nc(=O)n1CC2,"inconclusive: 20.6 µM [activator, partial curve]"
18,COc1ccc(C(=O)Oc2ccc3oc(=O)sc3c2)cc1,"inconclusive: 20.6 µM [activator, partial curve, poor fit]"
19,CCn1cc(Br)c(C(=O)NN)n1,inactive
20,COC(=O)c1cn(CC(=O)N2CCCCCC2)c2ccccc12,inactive
21,Cc1cc(C(F)(F)F)c(C#N)c(N2CCOCC2)n1,inactive
22,O=c1oc2ccccc2cc1-c1nnc(NCc2ccco2)s1,"inconclusive: 4.47 µM [activator, partial curve, poor fit]"
23,COc1cc2c(cc1N/C=C(\C#N)c1nc(-c3ccccc3)cs1)oc1ccccc12,"inconclusive: 16.4 µM [activator, partial curve, poor fit]"
24,COc1ccc(Cc2nc3ccc(C(=O)N4CCOCC4)cc3o2)cc1,active: 18.3 µM
25,Cc1ccc(C(=O)Nc2nc3ccc(S(C)(=O)=O)cc3s2)o1,"inconclusive: 6.51 µM [activator, partial curve, poor fit]"

row,SMILES,Potency
1,CC(C)(C)c1ccc(-c2nc(C#N)c(NCc3ccncc3)o2)cc1,"inconclusive: 7.31 µM [activator, single point]"
2,Cc1cc(C(=O)NCCC2=CCCCC2)no1,inactive
3,COc1cc(C(c2c(C)[nH][nH]c2=O)c2c(C)[nH][nH]c2=O)ccc1OCc1ccc([N+](=O)[O-])cc1,active: 18.4 µM
4,Cc1c(C(=O)NCc2ccc3c(c2)OCO3)oc2ccc(S(=O)(=O)N3CCCCC3)cc12,inactive
5,COc1cc2c(cc1OC)CN(c1ncccc1[N+](=O)[O-])CC2,"inconclusive: 18.3 µM [activator, partial curve, poor fit]"
6,COc1ccc(OC)c(S(=O)(=O)Nc2ccc3c(c2)n(C)c(=O)n3C)c1,"inconclusive: 20.6 µM [activator, single point]"
7,O=C(COn1nnc2ccccc21)N1CCN(Cc2ccccc2)CC1,"inconclusive: 20.6 µM [activator, partial curve, poor fit]"
8,O=C(NC1=NCCS1)Nc1ccccc1,"inconclusive: 4.61 µM [activator, full curve]"
9,O=C(c1ccccc1SCc1ccccc1)N1CCCCCC1,inactive
10,Cc1cc(C)cc(NC(=O)CCC(=O)Nc2cc(C)on2)c1,"inconclusive: 29.1 µM [activator, single point]"
11,Nc1c(C(=O)NCCc2ccccc2)nnn1Cc1ccc(Cl)cc1,inactive
12,S=c1[nH]c2cc(Cl)c3cccnc3c2o1,inactive
13,Cc1ccc(NC(=O)Nc2ccc(F)cc2F)c(OC(F)F)c1,"inconclusive: 25.9 µM [activator, partial curve, poor fit]"
14,O=C(c1cc(COc2ccc(F)cc2F)on1)N1CCSCC1,active: 20.6 µM
15,COC(=O)Nc1ccc(S(=O)(=O)N2CCC(C(=O)N3CCC(C)CC3)CC2)cc1,inactive
16,N#CC1(c2ccc(NC(=O)c3ccccc3F)cc2)CCCC1,active: 1.84 µM
17,CCCCOc1ccc2c(c1)C(=O)c1cc(O)ccc1-2,"inconclusive: 18.3 µM [activator, partial curve]"
18,Cc1cccc(NC(=O)Nc2cccc(F)c2)n1,"inconclusive: 16.4 µM [activator, partial curve, poor fit]"
19,CCC(=O)Nc1ccc(NC(=O)c2cccc(OC)c2)nc1,"inconclusive: 20.6 µM [activator, single point]"
20,Cc1occc1C(=O)Nc1cccc(C(=O)NCc2ccccc2)c1,inactive
21,Cc1cc(Cl)c(S(=O)(=O)Nc2ccc3c(c2)OCCO3)cc1OCC(N)=O,active: 23.1 µM
22,COc1ccccc1/C=C/C=N/NC(=O)c1ccco1,"inconclusive: 20.6 µM [activator, partial curve, poor fit]"
23,CCCCNC(=O)C1CC(c2cccc([N+](=O)[O-])c2)=NO1 (stereo not drawn),"inconclusive: 8.2 µM [activator, partial curve, poor fit]"
24,O=C(c1ccco1)N1CCc2ccccc21,"inconclusive: 13 µM [activator, partial curve]"
25,CN(C)C1CCN(Cc2cc(COCc3ccccc3)c3cccnc3c2O)C1 (stereo not drawn),"inconclusive: 9.2 µM [activator, partial curve, poor fit]"

row,SMILES,Potency
1,COc1cccc(C(=O)Nc2ccc3c(c2)C(=O)c2ccccc2C3=O)c1,"inconclusive: 18.4 µM [activator, partial curve]"
2,CCCCN(C(=O)c1cc2ccccc2o1)c1c(N)n(CCCC)c(=O)[nH]c1=O,inactive
3,Cn1c(/C(C#N)=C/c2ccc(O)cc2)nc2ccccc21,"inconclusive: 16.4 µM [activator, partial curve, poor fit]"
4,COc1cc(C(=O)Nc2cc(-c3nc4cc(C)ccc4o3)ccc2C)cc(OC)c1OC,"inconclusive: 13 µM [activator, partial curve]"
5,COc1ccc(CCNC(=O)COC(=O)c2cc(=O)[nH]c3ccccc23)cc1,inactive
6,Oc1ccc(/C=N/Nc2ccc(Cl)nn2)cc1O,"inconclusive: 18.3 µM [activator, single point]"
7,O=C(NCC1CCCO1)c1ccc(COc2ccc(Cl)cc2)cc1 (stereo not drawn),inactive
8,Cc1c(C(=O)Nc2ccncc2)sc2nc(-c3ccc(F)cc3)cn12,"inconclusive: 20.6 µM [activator, single point]"
9,CCCCCn1c(C(C)NC(=O)CCC)nc2ccccc21 (stereo not drawn),"inconclusive: 29.1 µM [activator, partial curve, poor fit]"
10,CCCCC(=O)OCc1nc(N)nc(Nc2ccccc2C)n1,"inconclusive: 20.6 µM [activator, partial curve, poor fit]"
11,O=C(Nc1cccc(-c2cn3c(n2)SCC3)c1)c1ccc2ccccc2n1,"inconclusive: 2.31 µM [activator, partial curve, poor fit]"
12,COc1cc2ccccc2cc1C(=O)Nc1ccc(C)cn1,active: 2.91 µM
13,CCOC(=O)/C=c1\s/c(=C\c2c(OC)ccc3ccccc23)c(=O)n1CC(=O)NCC1CCCO1 (stereo not drawn),inactive
14,Cc1ccc(/C=N/NC(=O)c2cccc3ccccc23)o1,inactive
15,COc1cc2cnc(-c3ccccc3)c(-c3ccc(C#N)cc3)c2cc1OC,inactive
16,CCCS(=O)(=O)Nc1ccc(-c2ccc3nnc(C)n3n2)cc1,"inconclusive: 18.3 µM [activator, single point]"
17,Brc1ccc(-c2csc(-c3ccncc3)n2)cc1,"inconclusive: 20.6 µM [activator, partial curve, poor fit]"
18,Cc1c(C(=O)Nc2ccc(S(=O)(=O)Nc3ncccn3)cc2)oc2ccc(F)cc12,inactive
19,Cc1ccc(-c2cc(C(F)(F)F)n3ncc(C(=O)N4CCN(C)CC4)c3n2)cc1,inactive
20,COc1ccc2[nH]c3c(c2c1)CCN1C(=O)C(CC(=O)NCc2ccco2)C[C@H](C(=O)N2CCCCC2)[C@@]31CCc1ccccc1 (stereo partly drawn),inactive
21,COc1ccc(OCc2cc(C(=O)N3CCCN(C(C)=O)CC3)no2)c(Cl)c1,"inconclusive: 18.3 µM [activator, partial curve, poor fit]"
22,O=C1OCCC1Sc1nnc(-c2ccco2)o1 (stereo not drawn),inactive
23,Cc1cccc(-n2ncc3c(N(C)Cc4ccccc4)ncnc32)c1,"inconclusive: 9.2 µM [activator, partial curve]"
